Assay results from article PMC4650712, “Conversion of cell-survival activity of Akt into apoptotic death of cancer cells by two mutations on the BIM BH3 domain” (Cell Death & Disease, 2015).

B1: p-BH3BIM(I155R/E158S), 21-mer peptide phosphorylated at Ser158 (peptide)
peptide: Ac-EIWIAQELRRRGD[pS]FNAYYAR-NH2
SMILES: CC[C@H](C)[C@H](NC(=O)[C@H](Cc1c[nH]c2ccccc12)NC(=O)[C@@H](NC(=O)[C@H](CCC(=O)O)NC(C)=O)[C@@H](C)CC)C(=O)N[C@@H](C)C(=O)N[C@@H](CCC(N)=O)C(=O)N[C@@H](CCC(=O)O)C(=O)N[C@@H](CC(C)C)C(=O)N[C@@H](CCCNC(=N)N)C(=O)N[C@@H](CCCNC(=N)N)C(=O)N[C@@H](CCCNC(=N)N)C(=O)NCC(=O)N[C@@H](CC(=O)O)C(=O)N[C@@H](COP(=O)(O)O)C(=O)N[C@@H](Cc1ccccc1)C(=O)N[C@@H](CC(N)=O)C(=O)N[C@@H](C)C(=O)N[C@@H](Cc1ccc(O)cc1)C(=O)N[C@@H](Cc1ccc(O)cc1)C(=O)N[C@@H](C)C(=O)N[C@@H](CCCNC(=N)N)C(N)=O
notes: human BIM BH3 core region, residues 145-165, with I155R and E158S; Ser158 is phosphorylated; also called phosphorylated BH3BIM(I155R/E158S); p-BIMBH3(I155R/E158S); source: synthetic peptide, bought: Peptron
B2: p-BH3BIM(R154S/I155R/E158S), 21-mer peptide phosphorylated at Ser158 (peptide, UniProt O43521 145-165, looked up)
peptide: Ac-EIWIAQELRSRGD[pS]FNAYYAR-NH2
SMILES: CC[C@H](C)[C@H](NC(=O)[C@H](Cc1c[nH]c2ccccc12)NC(=O)[C@@H](NC(=O)[C@H](CCC(=O)O)NC(C)=O)[C@@H](C)CC)C(=O)N[C@@H](C)C(=O)N[C@@H](CCC(N)=O)C(=O)N[C@@H](CCC(=O)O)C(=O)N[C@@H](CC(C)C)C(=O)N[C@@H](CCCNC(=N)N)C(=O)N[C@@H](CO)C(=O)N[C@@H](CCCNC(=N)N)C(=O)NCC(=O)N[C@@H](CC(=O)O)C(=O)N[C@@H](COP(=O)(O)O)C(=O)N[C@@H](Cc1ccccc1)C(=O)N[C@@H](CC(N)=O)C(=O)N[C@@H](C)C(=O)N[C@@H](Cc1ccc(O)cc1)C(=O)N[C@@H](Cc1ccc(O)cc1)C(=O)N[C@@H](C)C(=O)N[C@@H](CCCNC(=N)N)C(N)=O
notes: human BIM BH3 core region, residues 145-165, with R154S, I155R and E158S; also called p-BIMBH3(R154S/I155R/E158S); source: synthetic peptide, bought: Peptron
B3: BH3BIM(I155R/E158S) 21-mer peptide (peptide)
peptide: Ac-EIWIAQELRRRGDSFNAYYAR-NH2
notes: human BIM BH3 core region, residues 145-165, with I155R and E158S; also called unphosphorylated BH3BIM(I155R/E158S); the designed peptide; source: synthetic peptide, bought: Peptron

How the values were obtained:
recombinant BCL-2 = recombinant BCL-2 (UniProt P10417); experiment: ITC; peptide (0.2 mM) titrated into BCL-2 or BCL-XL (20 uM); 25 C; 20 mM Tris-HCl pH 7.5, 350 mM NaCl; iTC200; three independent experiments
[1] = target: T1, mouse BCL-XL (residues 1-44 and 85-196) (mouse, UniProt Q64373-1 1-44; Q64373-1 85-196); experiment: as above; settings: both partners purified
T1 construct: mouse BCL-XL, residues 1-44; mouse BCL-XL, residues 85-196; Residues 45-84 are left out; Cloned into pProEX-HTa; the tag was cleaved with TEV protease; source: E. coli BL21(DE3), purified (Ni-NTA, HiTrap Q); not shown: His6, N-terminal, cleaved
T1 chain (looked up): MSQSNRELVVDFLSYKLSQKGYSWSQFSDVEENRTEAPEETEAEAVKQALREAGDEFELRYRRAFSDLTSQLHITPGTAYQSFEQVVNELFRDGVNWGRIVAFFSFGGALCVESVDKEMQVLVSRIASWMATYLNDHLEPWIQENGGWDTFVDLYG

| Binder | Kd (recombinant BCL-2) | Kd [1] |
| --- | --- | --- |
| B1 | 8.55 nM | 9.9 nM |
| B2 |  | ~40 nM |
| B3 | 192 nM | 189 nM |

Square brackets hold non-standard residues; d marks the D form. pS = N[C@@H](COP(=O)(O)O)C(=O)O
